Experimental findings from the antibiotic and cytotoxicity screens of Wong et al. (2023) are described below.

The other results are listed elsewhere or left out.

One assay has as its system HSkMC. As to the kind of experiment: cytotoxicity call (relative viability < 0.9). Conditions: 10 µM.
The test system of another assay is HepG2. As to the kind of experiment: cytotoxicity call (relative viability < 0.9). Conditions: 10 µM.
For another assay, the system named is S. aureus RN4220. As to the kind of experiment: growth inhibition call (relative growth <= 0.2). Conditions: 50 µM.

As to `COC(=O)CN1C(=O)COc2ccc(C)cc21`, the cytotoxicity call in the assay with HSkMC and with HepG2 was “inactive” in each case. In the assay on S. aureus RN4220, the growth inhibition call was “inactive”.
Regarding `COc1ccc(NC(=O)N(C)C[C@H]2Oc3c(NC(=O)C4CCOCC4)cccc3C(=O)N([C@@H](C)CO)C[C@H]2C)cc1`, the cytotoxicity call in the assay with HSkMC and with HepG2 was “inactive” each time. Further, in the assay on S. aureus RN4220, the growth inhibition call was “inactive”.
As to `C[C@H]1CN([C@@H](C)CO)C(=O)Cc2cc(NC(=O)NC3CCCCC3)ccc2O[C@@H]1CN(C)S(C)(=O)=O`, the cytotoxicity call in the assay on HSkMC and in the assay with HepG2 was “inactive” each time. Besides, in the assay with S. aureus RN4220, the growth inhibition call was “inactive”.
`Cc1c(N(C)C)c(=O)n(-c2ccccc2)n1C`: the cytotoxicity call with HSkMC and in the assay on HepG2 was “inactive” throughout. For the same compound, the growth inhibition call in the assay on S. aureus RN4220 is “inactive”.
For `C[C@H](CO)N1C[C@H](C)[C@@H](CN(C)CC2CC2)OCCCC[C@H](C)Oc2ccc(NC(=O)CCCCCC(=O)Nc3ccccc3N)cc2C1=O`, the cytotoxicity call with HSkMC and in the assay with HepG2 was “inactive” throughout. Also, in the assay on S. aureus RN4220, the growth inhibition call is “inactive”.
Consider `C[C@@H]1CN([C@H](C)CO)C(=O)Cc2cc(NS(=O)(=O)c3ccccc3)ccc2O[C@H]1CN(C)S(=O)(=O)c1cccs1`, for which the cytotoxicity call with HSkMC and in the assay on HepG2 was “inactive” throughout. In the assay with S. aureus RN4220, the growth inhibition call was “inactive”.
As for `C[C@@H]1CN([C@@H](C)CO)C(=O)c2c(c3ccccc3n2C)-c2ccccc2CO[C@H]1CN(C)Cc1ccccc1`, the cytotoxicity call with HSkMC is “inactive”. In addition, the cytotoxicity call in the assay with HepG2 is “active”. Further, the growth inhibition call with S. aureus RN4220 was “inactive”.
Regarding `C[C@H]1CN([C@@H](C)CO)C(=O)c2ccccc2-c2ccccc2CO[C@@H]1CN(C)Cc1cccc(C(F)(F)F)c1`, the cytotoxicity call in the assay on HSkMC and with HepG2 was “inactive” throughout. Further, in the assay on S. aureus RN4220, the growth inhibition call was “inactive”.
On to `C[C@@H]1CCCCO[C@H](CN(C)S(=O)(=O)c2ccc(Cl)cc2)[C@@H](C)CN([C@@H](C)CO)C(=O)c2cc(NC(=O)Nc3ccc(C(F)(F)F)cc3)ccc2O1`, for which the cytotoxicity call in the assay with HSkMC and in the assay with HepG2 was “inactive” throughout. Further, the growth inhibition call in the assay with S. aureus RN4220 is “inactive”.
As for `CC1(C)C(=O)C=CC2(C)C1CC(=O)C1(C)C2CCC2(C)C(c3ccoc3)OC(=O)C3OC321` (stereo not drawn), in the assay with HSkMC, the cytotoxicity call was “inactive”. Further, the cytotoxicity call with HepG2 was “active”. For the same compound, the growth inhibition call in the assay on S. aureus RN4220 was “inactive”.
On to `COc1ccc(CN(C)C[C@@H]2Oc3ccc(NS(=O)(=O)c4cn(C)cn4)cc3CC(=O)N([C@@H](C)CO)C[C@@H]2C)cc1`, for which the cytotoxicity call with HSkMC and with HepG2 was “inactive” in each case. The growth inhibition call in the assay with S. aureus RN4220 is “inactive”.
Regarding `N[C@@H](CN1C=CC(=O)C(=O)C1)C(=O)O`, the cytotoxicity call in the assay with HSkMC and in the assay with HepG2 was “inactive” each time. The growth inhibition call with S. aureus RN4220 was “inactive”.
Take `NC(=O)CSc1ccccn1`: the cytotoxicity call in the assay with HSkMC and in the assay on HepG2 was “inactive” in each case. Moreover, in the assay with S. aureus RN4220, the growth inhibition call is “inactive”.
As to `C[C@@H]1CN([C@H](C)CO)C(=O)c2cc(NC(=O)CCC(F)(F)F)ccc2O[C@@H]1CN(C)C(=O)Nc1cccc2ccccc12`, the cytotoxicity call in the assay on HSkMC and in the assay with HepG2 was “inactive” in each case. The growth inhibition call with S. aureus RN4220 is “inactive”.
Consider `COc1ccc(S(=O)(=O)Nc2ccc3c(c2)C(=O)N([C@H](C)CO)C[C@H](C)[C@H](CN(C)Cc2ccc4c(c2)OCO4)OCCCC[C@@H](C)O3)cc1`, for which the cytotoxicity call in the assay with HSkMC and with HepG2 was “inactive” throughout. Also, the growth inhibition call with S. aureus RN4220 was “inactive”.
For `C[C@H](CO)N1C[C@H](C)[C@H](CN(C)C(=O)Nc2ccc3c(c2)OCO3)Oc2c(NC(=O)Nc3cccc4ccccc34)cccc2C1=O`, the cytotoxicity call in the assay with HSkMC and in the assay with HepG2 was “inactive” each time. In addition, the growth inhibition call in the assay on S. aureus RN4220 was “inactive”.
As for `C[C@@H]1CCCCO[C@@H](CN(C)C(=O)Cc2ccccc2)[C@@H](C)CN([C@@H](C)CO)C(=O)c2cc(NC(=O)Cc3ccccc3)ccc2O1`, the cytotoxicity call in the assay with HSkMC and in the assay with HepG2 was “inactive” throughout. Besides, the growth inhibition call with S. aureus RN4220 was “inactive”.
Turning to `C[C@H]1CN([C@@H](C)CO)C(=O)Cc2cc(NC(=O)CCCCCC(=O)Nc3ccccc3N)ccc2O[C@H]1CN(C)CC1CCCCC1`, the cytotoxicity call in the assay with HSkMC and with HepG2 was “inactive” in each case. Moreover, the growth inhibition call with S. aureus RN4220 was “inactive”.
`Cc1noc(C)c1NC(=O)N(C)C[C@@H]1Oc2ccc(NC(=O)Cn3cnnn3)cc2CC(=O)N([C@@H](C)CO)C[C@@H]1C`: the cytotoxicity call in the assay on HSkMC and in the assay on HepG2 was “inactive” each time. The growth inhibition call in the assay on S. aureus RN4220 was “inactive”.
Regarding `Cc1ccc(S(=O)(=O)Nc2ccc3c(c2)C(=O)N([C@@H](C)CO)C[C@H](C)[C@H](CN(C)S(=O)(=O)c2ccc(F)cc2)O3)cc1`, the cytotoxicity call in the assay with HSkMC and with HepG2 was “inactive” in each case. Also, in the assay with S. aureus RN4220, the growth inhibition call is “inactive”.
Consider `Cc1cccnc1[C@H](c1ccc(F)cc1)N(C)C(=O)C1CCN(CCn2cnc3c2c(=O)n(C)c(=O)n3C)CC1`, for which the cytotoxicity call in the assay on HSkMC (human skeletal muscle cells) and with HepG2 was “inactive” throughout. The growth inhibition call in the assay on S. aureus RN4220 was “inactive”.
For `C[C@H]1CN([C@@H](C)CO)C(=O)Cc2cc(NS(=O)(=O)c3ccc(F)cc3)ccc2O[C@@H]1CN(C)S(=O)(=O)c1cccs1`, the cytotoxicity call in the assay with HSkMC and with HepG2 was “inactive” throughout. The growth inhibition call in the assay on S. aureus RN4220 is “inactive”.
Regarding `C[C@H](CO)N1C[C@H](C)[C@@H](CN(C)S(=O)(=O)c2cccs2)Oc2ccc(NS(=O)(=O)c3cn(C)cn3)cc2C1=O`, the cytotoxicity call in the assay with HSkMC and with HepG2 was “inactive” throughout. Also, the growth inhibition call in the assay on S. aureus RN4220 was “inactive”.
Turning to `COc1ccccc1-c1ccc2c(c1)O[C@H](CN(C)C(=O)c1ccncc1)[C@@H](C)CN([C@@H](C)CO)S2(=O)=O`, the cytotoxicity call in the assay with HSkMC and in the assay with HepG2 was “inactive” throughout. Further, the growth inhibition call with S. aureus RN4220 was “inactive”.
With `CCS(=O)(=O)N1C[C@]2(CN(C2)S(=O)(=O)c2cn(cn2)C)c2c([nH]c3cc(ccc23)OC)[C@H]1CO`, the cytotoxicity call in the assay with HSkMC and in the assay with HepG2 was “inactive” throughout. In addition, in the assay on S. aureus RN4220, the growth inhibition call was “inactive”.
For the compound `COc1cc(C)ccc1S(=O)(=O)N1[C@@H]2CC[C@@H](C2)[C@H]1c1nc2cccc(OCc3ccccc3)c2[nH]1`, the cytotoxicity call in the assay with HSkMC and in the assay on HepG2 was “inactive” in each case. Moreover, the growth inhibition call in the assay with S. aureus RN4220 is “inactive”.
